In the supplement of paper PMC3334620:
Over roughly 33,000 sequences, “E-score (-0.5 to 0.5)” has its median near -0.043; the highest 2% begin near 0.37. Some of the results follow.

These sequences were tested against T1, Upc2 (UniProt Q12151) (assay: PBM E-score (8-mer binding enrichment) (E-score (-0.5 to 0.5)); higher = stronger / more preferred TF binding; most listed sequences are background and not binding sites). Settings: protein concentration: 200 nM; construct: GST-full length.
T1 sequence: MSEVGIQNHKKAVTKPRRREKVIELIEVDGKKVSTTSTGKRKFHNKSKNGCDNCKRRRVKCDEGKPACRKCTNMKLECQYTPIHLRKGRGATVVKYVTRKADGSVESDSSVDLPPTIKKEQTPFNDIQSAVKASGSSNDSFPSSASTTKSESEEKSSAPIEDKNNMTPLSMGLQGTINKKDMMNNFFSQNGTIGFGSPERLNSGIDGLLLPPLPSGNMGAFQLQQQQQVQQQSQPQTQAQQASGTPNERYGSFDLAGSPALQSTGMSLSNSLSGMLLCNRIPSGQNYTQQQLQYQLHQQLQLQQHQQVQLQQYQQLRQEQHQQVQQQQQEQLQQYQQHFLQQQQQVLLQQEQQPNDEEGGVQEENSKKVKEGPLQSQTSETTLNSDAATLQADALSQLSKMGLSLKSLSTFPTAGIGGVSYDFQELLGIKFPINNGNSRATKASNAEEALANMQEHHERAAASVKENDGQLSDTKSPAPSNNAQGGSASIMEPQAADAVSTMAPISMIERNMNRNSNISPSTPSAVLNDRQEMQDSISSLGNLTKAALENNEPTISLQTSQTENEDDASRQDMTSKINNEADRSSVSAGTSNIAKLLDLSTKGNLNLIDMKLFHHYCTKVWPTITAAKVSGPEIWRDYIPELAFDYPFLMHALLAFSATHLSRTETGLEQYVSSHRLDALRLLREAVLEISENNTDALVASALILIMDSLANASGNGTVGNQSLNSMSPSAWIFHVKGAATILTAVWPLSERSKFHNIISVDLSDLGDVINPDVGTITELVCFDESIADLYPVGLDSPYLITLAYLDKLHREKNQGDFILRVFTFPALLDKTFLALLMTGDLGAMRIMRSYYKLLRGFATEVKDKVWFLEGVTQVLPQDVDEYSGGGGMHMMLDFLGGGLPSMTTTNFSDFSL
Procedure, shortened: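 The E-score, a modified Wilcoxon-Mann-Whitney statistic, was computed by the Universal PBM Analysis Suite for every ungapped eight-base word pooled with its reverse complement. Scans behind it were normalised with masliner after bound GST-tagged yeast transcription factors were detected with fluorescent anti-GST. The proteins, at about 100-200 nM, had been applied to universal all-10-mer Agilent arrays made double-stranded by primer extension.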

Sequence	PBM E-score
CGAGGTAA	0.196
CTTAGGTA	0.0508
CAATCACG	0.00382
TGTAAGAA	0.0482
AATAATGG	-0.0495
TAACTAGA	-0.0932
CGGTTATC	0.187
GGTAGATA	0.0193
ATAAACAG	0.00269
ACATACGC	0.281
AAATACTT	-0.0542
GGCGTAAC	0.0403
ATGATACA	-0.122
ACTGATCC	-0.0846
AACCACCC	-0.147
GACTATAA	-0.036
CTGAAACC	-0.252
AAACAAAT	0.136
GCAAAACC	-0.128
AATCACAG	-0.117
CAATTACG	0.107
CTACCGAC	-0.00404
GCCCAGCC	-0.226
AAAACGGT	-0.0721
ATTTTGAC	-0.0644

Sequence	PBM E-score
CGTCCCGA	-0.0164
CCCTAGAA	0.0251
CAGAACGG	0.139
ACACGTAT	0.292
AATAGCCC	-0.202
ATTGGTTA	-0.0342
CGGAAATA	0.093
AACTGCTT	-0.161
ACGCCGCG	0.128
TACGCGGA	0.276
CGAAATTC	0.0977
AAGTACCT	-0.102
ACGATCAC	0.268
ATGCTGGC	-0.205
AGAATGTA	-0.0672
CCCGAACA	-0.064
GGTTGCAA	0.0442
AAGTAAAT	-0.0653
CTGCTTTC	-0.222
ATGGACAC	-0.0352
ACTGAACA	0.0269
GAGGATAA	-0.0411
TACACATA	0.144
AGGTAGCG	0.185
AGGGCTGA	-0.184

Sequence	PBM E-score
AGCAAGAG	-0.203
GCATATGC	0.0251
ACGCCGGC	-0.00364
CAGGATGC	-0.00933
AAGCATGC	-0.124
AGCTGTGC	-0.0829
GAAAAGAA	-0.00375
AGGGCCGA	-0.0627
CGGTAGCA	-0.131
ACGCGGCA	0.00542
TCTACGAA	0.335
TCTGCAGA	-0.0119
ATTTTCCC	-0.172
CGACTAAG	0.13
GGCACACC	-0.201
GTATTTAA	0.164
GCCTCGAC	-0.118
ACGTAAGG	0.091
ACAACCTG	-0.114
ATAGATAT	0.0103
ATACACCA	-0.0351
AGTGGGAG	-0.286
AGTGTCGC	-0.0581
ATTTGATA	0.139
AGCATACT	0.0348

Sequence	PBM E-score
AGATCTAG	-0.249
CCATACTA	-0.101
CTCGTACC	0.481
CAGAAGCG	0.0273
CGTGCGGC	-0.0925
GTTTTAAA	0.153
GCGGGTGA	-0.232
GTGTCCAA	-0.0902
GTAATTAC	0.0279
ACCGTAGC	0.115
ACCTCATG	-0.22
GCCGCAGC	-0.159
GGAGAATA	0.0549
CAGGGAGG	-0.282
CCACGACA	-0.131
ACGCTGGA	0.0743
CTGTTATC	-0.185
GATATTTA	0.0883
CGTCAACC	-0.0201
TAGTTGCA	-0.175
CAACGCGA	0.0946
ACGGACGC	-0.0287
ACCGCGCA	0.0823
GTTGGCCA	-0.311
GAACGAGA	0.457

Sequence	PBM E-score
CCACTACG	0.223
GGTGGGCA	-0.0535
AAACGTCA	0.192
ATTCGGTC	0.178
GAGACAGA	-0.0332
ATTGCAGG	-0.0113
TTTACAAA	0.0763
ATTGAAAT	0.0382
AGATGGTG	-0.0626
CCGGCGCG	-0.0503
TATGTAAA	0.103
ATCATCAG	-0.107
AGTATCAA	-0.1
CCGCTTCG	-0.0227
CGGTTGGA	-0.0446
AACAAGCA	-0.192
TACGACAA	0.46
CGCGTACC	0.302
ACCACTCC	-0.131
ACAGGTAT	0.165
AGAAGATG	-0.101
AGCCTTTA	0.0736
GTGCGAAC	0.0898
ATCGCGGA	-0.171
CTACAGTC	-0.112

Sequence	PBM E-score
ACATAACG	0.116
CCCCGTGC	0.0447
CCTTTATA	-0.135
ACGCACGT	0.144
ACGATAGA	0.309
CCATGTTC	-0.0966
AGATCCGG	-0.135
AAAAGAAT	0.115
GACGCGAA	-0.0143
CTGCAGTA	-0.189
TCTAAAAA	-0.0868
ACCTTTTC	-0.129
GTTTGACA	0.201
CCCGCCGC	0.114
TGAAAGAA	0.00635
ATTTGCGA	0.214
CCTCCACG	-0.131
AAGGGGAG	-0.157
CGGGTAGA	0.113
CATCACCA	-0.152
ACCAGTGA	-0.105
GAATTGAA	0.0546
CTAGCCTC	-0.0793
AATCGGAC	-0.0267
CCACTGTA	0.0804

Sequence	PBM E-score
ACTGAGCG	0.0165
GGCGTGAA	-0.00201
CAGCGGCA	-0.195
GCGTATCA	0.182
AAGTCCAC	-0.286
TGACAGCA	0.00022
ACGACGTG	0.351
CACACTAG	-0.125
GGCTACAA	-0.0568
ACGAATGA	0.354
CGACTTGA	0.0465
AACTCCTC	-0.0652
GCGGCATA	0.129
GTTCAAGA	0.144
GCCTACCC	-0.232
ATCGGAAA	0.0523
GCCCTACC	-0.19
CCGCCGTC	-0.125
ATGGAGCA	-0.0645
ATGGTGGG	-0.278
CGCGCAGA	0.131
TACTTACA	0.092
TAATGAAA	0.119
AGGACATC	0.0709
CAGGCGAG	-0.229

Sequence	PBM E-score
AACTCTCG	0.0165
TGTGCTAA	-0.0229
GGACTTTA	-0.0205
AACCTTAG	-0.219
GGACCCGA	-0.0888
GTGACAAA	0.0143
TAAATACA	0.122
TCGTGAAA	0.237
ACCAACGG	-0.115
AGCGGTTG	-0.0212
CGGCAGAC	-0.105
AGCAGGGG	-0.215
ATGGTGCC	-0.111
CCCCGCCA	0.141
AGTATGCG	0.14
CAGTTATG	-0.106
AGGCGTCG	0.174
AAATAATA	0.0878
AACGTGCT	-0.0916
GCACCCGA	0.0742
AGACTTAT	-0.0768
GAACTCAA	-0.116
CTGTGCTC	0.00992
AATTTTGT	0.0987
AGCACGAC	-0.0183

Sequence	PBM E-score
AATTCAGC	-0.0307
ATCCTGGC	-0.125
CACAGTCC	-0.241
GCACTAAC	0.0151
GAAAGGGA	-0.154
AGCGGCTG	-0.183
AACAATCT	-0.137
AAGGTAAA	0.168
CGCGTCGC	-0.00842
ACCATTAT	-0.192
TGACATAA	-0.0817
CACGATGG	0.0566
AATGCGAG	0.208
GCACCTAA	-0.00731
AGTCGGTG	-0.217
TATTAACA	0.14
AGAAGTGG	-0.0803
ACATGTAT	-0.00552
CGCCCTCA	-0.153
